Among the data in PubChem BioAssay AID330 (DTP/NCI, 2004) are T/C values, retold here.

Inconclusive results and toxic doses are left out. For part of its entries the source gives two or more results. This is not the full list of results. There may be further records. Values given together do not match, cause unknown; some may be repeats, others may stem from another dose, organism or construct than stated. Records carry a tag for their origin. Letters hold for one entry only.

The test system of this assay is P388 leukemia ip, CD2F1 mice, survival T/C. In words: NCI In Vivo Anticancer Drug Screen. Data for tumor model P388 Leukemia (intraperitoneal) in CD2F1 (CDF1) mice. The following applies: endpoint: median survival time, higher = longer survival.

On to `C1OC1C1CO1` (centres undefined), for which, for the setting “dose: 20.0 mg/kg/injection, schedule: Q01DX009 (ip), vehicle: saline”, the T/C was 113 % of control and 159 % of control.
With `CCN(CC)C1CC(O[C@H]2C[C@](O)(C(C)=O)Cc3c(O)c4c(c(O)c32)C(=O)c2c(OC)cccc2C4=O)OC(C)C1O` (some centres undefined), the T/C (dose: 12.0 mg/kg/injection, schedule: Q04DX003 (ip), vehicle: water) is 101 % of control and 166 % of control.
Turning to `CC(C)CC(NC(=O)C(N)Cc1ccc(N(CCCl)CCCl)cc1)C(=O)O` (centres undefined), the T/C (dose: 5.6 mg/kg/injection, schedule: Q04DX003 (ip), vehicle: saline with Tween-80) is 171 % of control, 193 % of control [sample A] and 123 % of control [sample B].
In the case of `COCC1(COC)CCN(C2CC(O[C@H]3C[C@](O)(C(C)=O)Cc4c(O)c5c(c(O)c43)C(=O)c3c(OC)cccc3C5=O)OC(C)C2O)CC1` (some centres undefined), the T/C (dose: 6.25 mg/kg/injection, schedule: Q04DX003 (ip), vehicle: water) is 124 % of control and 168 % of control.
